Molecular target: T1, CD4 on CD4 positive cells in human peripheral blood (human, UniProt P01730)
T1 construct: whole, on cells; also called CD4 molecules
Experiment: cell adsorption from human whole blood on covalently immobilized binder (GMA grafted nonwoven fabric column); flow cytometry; mean ± SD of 3
Method: Immediately before the initiation of experiment, the PBS(−) solution was drained off by flowing air through the column. 5.0 ml of healthy human fresh blood containing ACD-A ([…] Laboratories) (blood:ACD-A=6.7:1) was fed from the inlet of the cell adsorber at a flow rate of 1.0 ml/min with a syringe pump. After discarding the first five drops, the treated blood was collected from the outlet of the column.
The CD4 positive cell removal rate at that time was calculated based on the change in the number of leukocytes measured by Coulter counter, and the change in the proportion of CD4 positive cells in the recovered cells measured by flow cytometry with use of a flow cytometer (FACS Calibur: Becton, Dickinson and Company). The cells were stained by the following manner. 100 μl of the collected blood was added with 10 μl of anti-CD4-PE solution (clone SK3, Becton, Dickinson and Company), 10 μl of anti-CD8-FITC solution (clone RPA-T8, Becton, Dickinson and Company), and 10 μl of anti-CD45-PerCP solution (Becton, Dickinson and Company). The resultant mixture was allowed to be stained at room temperature for 30 minutes, and then was added with 1 ml of FACS Lysing solution (Becton, Dickinson and Company) to effect hemolysis. CD45 positive cells were gated as leukocytes, and the proportion of CD4 positive cells therein was assayed.

CD4 positive cell removal rate (%)	Binder
91.4	Leu3a scFv-SA-guanidine (scFv, also called Leu3a scFv-SA protein) scFv: MADIVLTQSPASLAVSLGQRATISCKASQSVDYDGDSYMNWYQQKPGQPPKLLIYAASNLESGIPARFTGSGSGTDFTLNIHPVEEEDTATYYCQQSYEDPPTFAGGTNLEIKGGGGSGGGGSGGGGSMVHLQESEPELVKPGASVKMSCKASGYTFTDYVINWVKQRTGQGLEWIGETYTGSGSSYYNEKFKDKATLTVDKASNIAYMQLSSLTSEDSAVYFCARRGKGTGFAFWGQGTLVTVSAAAADYKDDDDKGSS[about 120 residues not listed]GSTHHHHHH
62.8	Leu3a scFv-SA-Urea (scFv, Covalently immobilized on GMA grafted nonwoven fabric in the assay) scFv: MADIVLTQSPASLAVSLGQRATISCKASQSVDYDGDSYMNWYQQKPGQPPKLLIYAASNLESGIPARFTGSGSGTDFTLNIHPVEEEDTATYYCQQSYEDPPTFAGGTNLEIKGGGGSGGGGSGGGGSMVHLQESEPELVKPGASVKMSCKASGYTFTDYVINWVKQRTGQGLEWIGETYTGSGSSYYNEKFKDKATLTVDKASNIAYMQLSSLTSEDSAVYFCARRGKGTGFAFWGQGTLVTVSAAAADYKDDDDKGSS[about 120 residues not listed]GSTHHHHHH
